# This list was built around the results that the source calls inconclusive (neither active nor inactive); the mix of calls is not that of the screen. No potency is given beside an inconclusive call; the fits are too rough. The source made the active and inactive calls. Calls follow the shape of the dose curve; as a rule, active = well fitted curve in the direction sought with a large enough effect; inconclusive = small, poorly fitted or top-dose-only effect, or another doubt; inactive = no such curve, though single readings can be large; an effect the other way counts as inactive or inconclusive.
# Molecular target: Rap guanine nucleotide exchange factor 3 (Homo sapiens) (UniProt O95398)
# Test: Confirmatory qHTS for antagonist of cAMP-regulated guanine nucleotide exchange factor 3 (EPAC1) (AID 1645880); also: nearly all actives have a fitted effect of over 55% in size;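 as to activity, negative = inhibition: plate controls were DMSO only for no effect and full effect of the ATA control for full effect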
# Settings: EPAC1 Rap1B-BODIPY-GDP exchange, fluorescence; activity, negative = inhibition: at 115 µM (top of the series)
# Summary of the method: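 Released BODIPY-GDP fluoresces less than Rap1-bound BODIPY-GDP; the signal is followed at 480/540 nm at 5-min intervals over 30 min, after 5 min at room temperature. Reactions contain 100 nM EPAC1, 250 nM RAP1B-BODIPY-GDP and 50 uM GDP; results are normalized to ATA and DMSO.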
# Potency is read from the fitted curve at half-maximal effect; tags tell the direction and shape of the fitted curve.
# Sequence of UniProt O95398 (O95398 whole entry, looked up): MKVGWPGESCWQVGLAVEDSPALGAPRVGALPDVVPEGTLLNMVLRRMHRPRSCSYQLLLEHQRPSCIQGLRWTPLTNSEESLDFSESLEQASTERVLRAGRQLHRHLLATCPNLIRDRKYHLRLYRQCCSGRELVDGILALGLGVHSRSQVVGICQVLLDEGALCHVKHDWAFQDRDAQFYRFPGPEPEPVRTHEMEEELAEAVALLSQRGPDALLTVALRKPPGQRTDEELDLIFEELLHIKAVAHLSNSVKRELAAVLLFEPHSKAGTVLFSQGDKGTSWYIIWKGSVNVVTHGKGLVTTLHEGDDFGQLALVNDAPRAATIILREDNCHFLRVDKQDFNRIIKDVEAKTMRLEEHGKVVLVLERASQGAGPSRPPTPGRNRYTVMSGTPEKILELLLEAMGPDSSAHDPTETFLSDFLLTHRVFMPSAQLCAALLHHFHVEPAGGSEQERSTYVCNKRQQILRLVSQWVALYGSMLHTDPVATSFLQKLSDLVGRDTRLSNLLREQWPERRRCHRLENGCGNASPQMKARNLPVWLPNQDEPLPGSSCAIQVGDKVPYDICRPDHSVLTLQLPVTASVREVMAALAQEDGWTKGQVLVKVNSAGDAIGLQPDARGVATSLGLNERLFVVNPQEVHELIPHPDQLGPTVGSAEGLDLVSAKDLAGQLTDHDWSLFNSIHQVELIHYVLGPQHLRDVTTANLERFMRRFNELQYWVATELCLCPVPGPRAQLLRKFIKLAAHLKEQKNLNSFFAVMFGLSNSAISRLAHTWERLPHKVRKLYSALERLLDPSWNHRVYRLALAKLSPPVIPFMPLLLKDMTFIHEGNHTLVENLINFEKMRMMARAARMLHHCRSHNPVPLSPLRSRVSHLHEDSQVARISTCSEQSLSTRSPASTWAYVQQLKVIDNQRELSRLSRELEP
Structure (SMILES),Potency,"activity, negative = inhibition"
Cc1cccc(N2CCN(c3ccc(C(=O)O)cc3NC(=O)c3ccccc3F)CC2C)c1 (stereo unspecified),active: 84.9 µM,
O=C(Nc1cccc(F)c1)c1ccc(-c2cccnc2)c2ccoc12,"inconclusive [inhibitor, partial curve]",
CCCC/C=C/[C@H](c1ccccc1)[C@H](CO)Cc1cccnc1,"inconclusive [inhibitor, partial curve]",
CCOC(=O)c1cnc2ccc(C(=O)OC)cc2c1Nc1ccccc1CC,"inconclusive [inhibitor, single point]",
CC(C)O/C(=N\S(=O)(=O)c1ccc(Cl)cc1)c1ccccc1,,inactive: -23.5%
COc1cccc(NC(=O)CCNC(=O)Cn2ccc3ccccc3c2=O)c1,,inactive: -24.6%
Cc1ccc(Nc2c(-c3ccccn3)nc3cccc(C)n23)cc1,"inconclusive [inhibitor, partial curve, poor fit]",
COc1ccc(CC(=O)NCc2ccc3c(c2)CCN3C(=O)c2ccc(Cl)cc2)cc1OC,"inconclusive [inhibitor, partial curve, poor fit]",
O=C(CSc1nc2ccc(Cl)cc2[nH]1)N1CCN(C(=O)c2ccco2)CC1,"inconclusive [inhibitor, partial curve, poor fit]",
CC(C)(C)C1CCc2c(sc3nc(SCC(=O)O)nc(N)c23)C1 (stereo unspecified),"inconclusive [inhibitor, partial curve]",
Oc1ccc2ccccc2c1C=Nc1ccc(Cl)cn1,"inconclusive [inhibitor, partial curve]",

# Molecular target: Rap guanine nucleotide exchange factor 3 (Homo sapiens) (UniProt O95398)
# Test: Counterscreen qHTS for agonist of cAMP-regulated guanine nucleotide exchange factor 3 (EPAC1) (AID 1645889); also: nearly all actives have a fitted effect of over 40% in size; as to activation: % of control where 0% means no effect
# Settings: EPAC1 Rap1B-BODIPY-GDP exchange, fluorescence; activation: at 154 µM (top of the series) unless noted
# Summary of the method: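 Rap1B–BODIPY-GDP (250 nM) with 50 uM GDP; compounds pin-transferred to 9.74 nM–152 uM final (activator) or from 7.32 nM upwards (inhibitor). Fluorescence Ex/Em 480/540 nm read at 5 and 30 min, then after adding cAMP or buffer, at room temperature.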
Structure (SMILES),Potency,activation
Cc1nnc(SCC(=O)NCc2ccccc2F)c2nn(-c3ccc(Cl)cc3)c(C)c12,"inconclusive [activator, partial curve, poor fit]",
O=C(O)c1cc(-c2ccc(/C=C3/SC(=S)N(Cc4ccccc4)C3=O)o2)ccc1Cl,,inactive: 7.37% [at 30.8 µM]
Cc1ccc(Nc2nnc(-c3ccc(C)c(S(N)(=O)=O)c3)c3ccccc23)cc1,"inconclusive [activator, full curve, poor fit]",
N#C/C(=C\c1ccccn1)c1nc2ccccc2s1,,inconclusive: 40.1% [activator]
CCOC(=O)C(NS(=O)(=O)c1ccc(C)cc1)(C(F)(F)F)P(=O)(OCC(C)C)OCC(C)C (stereo unspecified),,inactive: -13.6%
COc1cccc(-c2nc(SCC(=O)Nc3nc(-c4ccccc4)c(C)s3)[nH]c(=O)c2C#N)c1,,inactive: -6.26%
Cc1ccc(C)c(Cn2c(C3CC(=O)N(c4ccccc4C)C3)nc3ccccc32)c1 (stereo unspecified),"inconclusive [activator, partial curve]",
COc1cc(/C=C2\SC(=S)N(NS(=O)(=O)c3ccccc3)C2=O)cc(OC)c1OC,"inconclusive [activator, full curve, poor fit]",
CN(Nc1cccc(Cl)c1)c1cccc(Cl)c1,,inconclusive: 42.6% [activator]
CCOc1cccc(CC(=O)NCc2ccc3c(c2)CCN3C(C)=O)c1OCC,,inactive: 19%
Cc1csc2c(=O)sc(NC(=O)c3cccs3)nc12,,inactive: 17.5%
CCc1nc2ccc(C(=O)Nc3ccc(NC(C)=O)cc3)cn2c1N(C)CCC(C)C,,inactive: -2.93%
Oc1cccc(C=Nc2cccc3ccccc23)c1O,"inconclusive [activator, full curve]",
Cc1noc(C)c1COc1ccccc1C(=O)NC(C)c1ccc(Cl)cc1 (stereo unspecified),,inconclusive: 51.1% [activator]
Cc1[nH][nH]c(=O)c1C(c1c(C)[nH][nH]c1=O)c1cn(Cc2cccc3ccccc23)c2ccccc12,active: 12.6 µM,
COc1ccc(S(=O)(=O)N2CCC[C@H]2C(=O)N2CCC[C@H]2C(=O)N[C@@H](C)c2ccccc2)cc1C,"inconclusive [activator, full curve, poor fit]",
CCCc1ccc2oc(C(=O)NCCc3nc(C(=O)OCC)cs3)c(C)c2c1,"inconclusive [activator, partial curve, poor fit]",
CCOC(=O)c1ccc(-n2c(N)c(C(=O)OC)c3nc4ccccc4nc32)cc1,"inconclusive [activator, full curve]",
COc1ccccc1C(CC(=O)N1CCCC1)c1ccc2c(c1)OCO2 (stereo unspecified),"inconclusive [activator, full curve, poor fit]",
CCc1nc2c(OCc3ccc(OC(F)F)cc3)cccn2c1N(C)C(=O)c1cccs1,"inconclusive [activator, partial curve, poor fit]",

Structure (SMILES),Potency,activation
Cc1[nH]n(-c2ccccc2)c(=O)c1C(c1cc(Cl)ccc1O)c1c(C)[nH]n(-c2ccccc2)c1=O,active: 2.51 µM,
COc1cc(S(=O)(=O)NC2CCCCC2C)ccc1Cl (stereo unspecified),"inconclusive [activator, full curve]",
CCCCC(CC)C(=O)Nc1ccc(Nc2ccccc2)cc1 (stereo unspecified),,inactive: -15.8%
CCOc1cc(/C=C/c2cc(C(=O)O)c3ccccc3n2)ccc1OC,,inactive: 6.45% [at 30.8 µM]
Cc1ccc2cc(CN(Cc3ccco3)C(=O)c3ccco3)c3nnnn3c2c1,"inconclusive [activator, partial curve, poor fit]",
CC(C)(C)n1nc(Cc2cccc3ccccc23)c(C#N)c1N,,inactive: 7.57%
CC(C)(C)Cc1c(-c2ccccc2)nc2ccc(Cl)cn12,"inconclusive [activator, partial curve, poor fit]",
CCn1c(SCC(=O)N/N=C/C=C\c2ccco2)nc2ccccc21,"inconclusive [activator, partial curve, poor fit]",
O=C(CCC1N=C2c3ccccc3N=C(SCc3ccc(Cl)cc3)N2C1=O)NCc1cccs1 (stereo unspecified),,inactive: 9.18%
Cc1cccc(N2CCN(c3ccc(C(=O)O)cc3NC(=O)c3ccccc3F)CC2C)c1 (stereo unspecified),,inconclusive: 37.7% [activator]
O=C(Nc1cccc(F)c1)c1ccc(-c2cccnc2)c2ccoc12,,inconclusive: 29.3% [activator]
CCCC/C=C/[C@H](c1ccccc1)[C@H](CO)Cc1cccnc1,,inactive: -22%
CCOC(=O)c1cnc2ccc(C(=O)OC)cc2c1Nc1ccccc1CC,,inconclusive: 48% [activator]
CC(C)O/C(=N\S(=O)(=O)c1ccc(Cl)cc1)c1ccccc1,,inconclusive: 27% [activator]
COc1cccc(NC(=O)CCNC(=O)Cn2ccc3ccccc3c2=O)c1,,inconclusive: 24.9% [activator]
Cc1ccc(Nc2c(-c3ccccn3)nc3cccc(C)n23)cc1,"inconclusive [activator, partial curve, poor fit]",
COc1ccc(CC(=O)NCc2ccc3c(c2)CCN3C(=O)c2ccc(Cl)cc2)cc1OC,,inconclusive: 56.7% [activator]
O=C(CSc1nc2ccc(Cl)cc2[nH]1)N1CCN(C(=O)c2ccco2)CC1,,inconclusive: 23.1% [activator]
CC(C)(C)C1CCc2c(sc3nc(SCC(=O)O)nc(N)c23)C1 (stereo unspecified),"inconclusive [activator, full curve, poor fit]",
Oc1ccc2ccccc2c1C=Nc1ccc(Cl)cn1,,inactive: 29.7%

# Source: PubChem BioAssay (NCATS)
